# In all, about 360,000 compounds went through this assay and about 11,000 (3.1%) were called active. This list was built around the results that the source calls inconclusive (neither active nor inactive); the mix of calls is not that of the screen. Calls follow the shape of the dose curve; as a rule, active = well fitted inhibition curve with a large enough effect; inconclusive = small, poorly fitted or top-dose-only effect; inactive = no such curve, though single readings can be large or run the other way. Potencies of inconclusive entries are left out as doubtful fits.
# Target: Schistosoma mansoni thioredoxin glutathione reductase (TGR) (UniProt Q962Y6)
# Assay: qHTS Assay for the Inhibitors of Schistosoma Mansoni Peroxiredoxins; also: nearly all actives have a fitted effect of over 60% in size
# Settings: purified TGR, DTNB reduction, TNB absorbance 405 nm; activity change, negative = inhibition: at 114 µM (top of the series) unless noted
# How it was run: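 First, TGR (20 nM dispensed) and NADPH were mixed with compound. Second, a 15 min room-temperature incubation followed. Third, further NADPH and then DTNB were added to start the reaction. Finally, TNB absorbance was monitored kinetically.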
# % is scaled to controls: 0 for no effect and ±100 for the full control effect; potency is read from the fitted curve at half-maximal effect; tags tell the direction and shape of the fitted curve.
SMILES,Potency,"activity change, negative = inhibition"
C=CCn1c(O)c(C(CC)=Nc2ccc(N(C)C)cc2)c(=O)[nH]c1=O,active: 31.6 µM,–
COc1ccc([N+](=O)[O-])cc1NC(=O)CCSCCc1ccccn1,–,inactive: 9.5%
C1CCc2c(nnc3c2-c2nonc2CC3)C1,–,inactive: 5.47%
Cc1nc2nc(-c3ccc(F)cc3)cn2nc1C,–,inactive: 39.4%
CN(C)C(=O)c1ccc(NC(=O)COc2cccc3c2OC(C)(C)C3)cc1,–,inactive: -17.4%
COc1ccc(-c2nc(CSCC(=O)NCCc3ccc(OC)c(OC)c3)c(C)o2)cc1,–,inactive: -3.16%
CC(=O)Nc1ccc(SC[C@H](CC(C)C)N2CCN(CC(C)C)CCC2=O)cc1,"inconclusive [inhibitor, partial curve]",–
Cc1ccc(/C=C/C(=O)NC2CCCCCCC2)o1,active: 2.51 µM,–
CC(=O)c1cccc(N(CC(=O)N2CCCC2)S(C)(=O)=O)c1,active: 44.7 µM,–
CCn1c(C(=O)N2CCc3ccccc3C2)cc2oc3ccccc3c21,–,inactive: -14.4%
CCc1ccc(C(C(=O)NC(C)(C)CC)N(Cc2ccco2)C(=O)Cn2nnc3ccccc32)cc1 (configuration not stated),–,inactive: -2.89%
Oc1ccc2nnc3c(Br)cnn3c2c1,"inconclusive [inhibitor, partial curve]",–
O=S(=O)(c1ccc(NC(=S)Nc2ccccc2)cc1)N1CCOCC1,active: 44.7 µM,–
COc1ccc(S(=O)(=O)N2CCCCCC2)cc1C(=O)N(C)CCOc1ccc(Cl)cc1,–,inactive: 3.2%
O=C(Cc1ccccc1)NNC1CC(=O)N(c2ccc(Br)cc2)C1=O (configuration not stated),–,inactive: -13.2%
COc1cc(/C=C/CO)cc(OC)c1OC/C=C(\C)CCC=C(C)C,"inconclusive [inhibitor, partial curve]",–
Cc1ccc(N(C)S(=O)(=O)c2nnc(NC(=O)c3ccco3)s2)cc1,"inconclusive [inhibitor, partial curve]",–
CCOC(=O)c1ccc(N2C(=O)CC(Sc3nnc(C)s3)C2=O)cc1 (configuration not stated),active: 4.47 µM,–
Cc1cc(/C=C2\C(=O)NC(=O)N(c3ccc(F)cc3)C2=O)c(C)n1-c1cccc(C(=O)O)c1,"inconclusive [inhibitor, full curve]",–
Cc1nc2ccccc2c2oc(C(=O)N3CCN(C(=O)c4ccco4)CC3)cc12,"inconclusive [inhibitor, partial curve]",–
O=C1CCCC/C1=C/Nc1ccc(C(=O)O)cc1,"inconclusive [inhibitor, single point]",–
CN1CCc2c(sc3nc(SCC(N)=O)n(-c4ccccc4)c(=O)c23)C1,"inconclusive [inhibitor, partial curve]",–
CSc1ccc(C(=O)NCC(c2ccco2)N(C)C)cc1[N+](=O)[O-] (configuration not stated),–,inactive: -10.4%
Cc1cc2ccccc2n1CCNC(=O)c1cccs1,"inconclusive [inhibitor, partial curve]",–
O=C(O)CCc1ccc(-c2ccc(F)cc2)n1Cc1ccco1,active: 50.1 µM,–
CCOc1ccccc1N(CC(=O)Nc1ccccc1F)S(=O)(=O)c1ccccc1,–,inactive: -19.1%

SMILES,Potency,"activity change, negative = inhibition"
O=C(C(Cl)c1ccccc1)N1CCCC1 (configuration not stated),"inconclusive [inhibitor, partial curve]",–
C=CC[N+]1(C)CC[C@]23c4c5ccc(O)c4O[C@H]2C(=O)CC[C@@]3(O)[C@H]1C5 (some centres not stated),active: 50.1 µM,–
CC(C)(C)OC(=O)N1CCC[C@@H]1C(=O)N1CCC(C(=O)O)CC1,–,inactive: 1.7%
NS(=O)(=O)c1cccc(NC(=O)COC(=O)/C=C/c2ccco2)c1,active: 6.31 µM,–
CCCCn1c(O)c(C(CC)=NCCCN(C)C)c(=O)[nH]c1=O,"inconclusive [inhibitor, full curve]",–
CN(C)c1ccc(/C=N/NC(=O)C(O)(c2ccccc2)c2ccccc2)o1,active: 10 µM,–
N#Cc1nc(-c2cccc3ccccc23)oc1N1CCCCC1,–,inactive: -0.119%
C=CCn1c(SCC(=O)c2ccc(O)c(O)c2)nnc1-c1ccc(C)cc1,"inconclusive [inhibitor, partial curve]",–
Cc1nc([N+](=O)[O-])c(Br)n1CC(=O)c1ccc(F)cc1,active: 3.16 µM,–
N#Cc1c(SCC(=O)Nc2nncs2)sc2c(O)cc(=O)[nH]c12,active: 35.5 µM,–
Cc1ccc(N=Nc2ccc(O)c3ncccc23)cc1C,"inconclusive [inhibitor, partial curve]",–
O=C1/C(=C/c2cccs2)SC(=S)N1N1CCOCC1,"inconclusive [inhibitor, partial curve]",–
CC(=O)Oc1cccc(Nc2ncnc3ccccc23)c1,–,inactive: 6.3%
O=C(O)c1ccccc1C(=O)N1CC=C(c2ccccc2)CC1,active: 35.5 µM,–
CC(=O)c1ccccc1C(=O)N1CCCC(N2CCN(Cc3ccc4c(c3)OCO4)CC2)C1 (configuration not stated),"inconclusive [inhibitor, partial curve, poor fit]",–
C/C(CC(=O)Nc1cccc(F)c1)=N\NC(=O)c1ccncc1,"inconclusive [inhibitor, partial curve]",–
COC(=O)c1[nH]c2cccc(OC)c2c1NC(=O)CCN1CCC(C)CC1,–,inactive: 0.503%
CCC(=O)NC1=C(NC(C)c2ccccc2)C(=O)c2ccccc2C1=O (configuration not stated),"inconclusive [inhibitor, partial curve]",–
CC(=O)c1ccc(NC(=S)NC(NC(=O)c2ccco2)C(Cl)(Cl)Cl)cc1 (configuration not stated),"inconclusive [inhibitor, partial curve]",–
O=C(c1cc(-c2ccco2)on1)N1CCc2ccccc2C1,active: 12.6 µM,–
COc1ccccc1CNC(=O)COC(=O)c1cc(-c2ccco2)nc2ccccc12,active: 10 µM,–
COC(=O)c1ccc(CSc2nc3ccccc3c(=O)n2Cc2ccco2)o1,"inconclusive [inhibitor, partial curve, poor fit]",–
O=C(Cn1ncc(Cl)c(Cl)c1=O)NC1CCS(=O)(=O)C1 (configuration not stated),active: 6.31 µM,–
Cc1occc1-c1nc(-c2ccccn2)no1,–,inactive: 6.14%
CCCCC(=O)NC(=S)Nc1cccc(NC(=O)CC)c1,"inconclusive [inhibitor, partial curve]",–
c1ccc(COc2ccccc2CNC23CC4CC(CC(C4)C2)C3)cc1,–,inactive: 8.74%

SMILES,Potency,"activity change, negative = inhibition"
O=C(Nc1ccccc1)C1=C(O)CC(c2ccco2)CC1=Nc1ccccc1 (configuration not stated),"inconclusive [inhibitor, partial curve]",–
c1ccc2[nH]c(CN3CCCCCC3)nc2c1,"inconclusive [inhibitor, single point]",–
CCCN(CCC)Cc1c(C(=O)N/N=C/C(C)=C\c2ccco2)nnn1-c1nonc1N,"inconclusive [inhibitor, partial curve]",–
CCCCNC(=S)Nc1ccc([N+](=O)[O-])cc1,"inconclusive [inhibitor, partial curve]",–
Cc1cc(C)cc(C(=O)NC2C(=O)N3C(C(=O)O)=C(CSc4nnc(C)s4)CSC23)c1 (configuration not stated),active: 5.01 µM,–
CC(C)(C)C(=O)[C@@H]1[C@@H]2C(=O)N(Cc3ccccc3)C(=O)[C@@H]2[C@H]2c3ccccc3C=CN12,"inconclusive [inhibitor, partial curve]",–
Cc1cccc(C(=O)NC(=S)NNC(=O)c2cccs2)c1,"inconclusive [inhibitor, single point]",–
O=C1/C(=C/N(C(=O)c2ccco2)c2ccc(Br)cc2)Sc2ccccc21,active: 12.6 µM,–
COc1ccc(/C=N/n2cnnc2SCCO)cc1OC,"inconclusive [inhibitor, partial curve, poor fit]",–
Cn1c(CNC(=O)CSc2nc(-c3ccccc3F)nc3cc(=O)[nH]n23)nc2ccccc21,"inconclusive [inhibitor, single point]",–
Cc1occc1C(=O)NC1CCCc2ccccc21 (configuration not stated),"inconclusive [inhibitor, partial curve]",–
Cc1ccccc1NS(=O)(=O)c1ccc(-c2ccc(=O)[nH]n2)o1,"inconclusive [inhibitor, full curve]",–
Cc1cc(CN(C)C(=O)CC2C(=O)NCCN2Cc2ccc(-c3ccccc3)cc2)on1 (configuration not stated),"inconclusive [inhibitor, full curve]",–
CCN(CC)C(=O)c1sc2c(c1C)c(=O)n(-c1ccccc1)c(=O)n2CC(=O)N(CC)c1cccc(C)c1,–,inactive: 7.02%
O=C1CC(N(O)c2ccccc2)C(=O)N1c1cc(Cl)cc(Cl)c1 (configuration not stated),"inconclusive [inhibitor, partial curve]",–
COc1ccc(C(c2nnnn2Cc2cccs2)N2CCN(c3ccccc3F)CC2)cc1OC (configuration not stated),–,inactive: -8.7%
O=C(CN1CCOCCOCCN(CC(=O)Nc2ccccc2)CCOCC1)Nc1ccccc1,"inconclusive [inhibitor, partial curve]",–
COc1ccc(CCNC(=O)c2cc(-c3ccccc3O)n[nH]2)cc1OC,–,inactive: -12.1%
CC(C)N1C(=O)CC(Nc2ccc(N3CCOCC3)cc2)C1=O (configuration not stated),active: 35.5 µM,–
COCCOC(=O)c1[nH]c2c(c1C)C(=O)CC(c1ccc(N(C)C)cc1)C2 (configuration not stated),–,inactive: -17.5%
COc1cccc(OCc2cc(C(=O)N3CCN(C(=O)c4ccco4)CC3)no2)c1,"inconclusive [inhibitor, partial curve]",–
COC(=O)C1=C(C)NC(=O)/C1=C\c1cccs1,–,inactive: -23.9%
CC(=O)c1ccc(NC(=O)C2C3CCC(C3)C2C(=O)O)cc1 (configuration not stated),"inconclusive [inhibitor, full curve, poor fit]",–
OCCC1CN(CC#Cc2ccccc2)CCN1Cc1ccccc1F (configuration not stated),active: 20 µM,–
O=C(O)Cc1sc(Nc2ccc(C(=O)O)cc2)nc1-c1ccccc1,"inconclusive [inhibitor, partial curve]",–

# Reference: PubChem BioAssay AID485364 (National Center for Advancing Translational Sciences (NCATS), 2010)
